Assay results taken from patent US20230039401A1 (ATYR PHARMA, published 2023).

Experiments:
[1] = target: T1, NRP1-His (R&D Systems #3870-N1) (human, UniProt O14786-2 22-644); assay: SPR, Fc-HRS(2-60) immobilised, 50 nM NRP1 as analyte
T1 construct: not shown: His tag

[2] = target: T2, Rat NRP2-Fc-His (R&D Systems #567-N2) (rat, UniProt O35276 23-858, limits assumed); assay: SPR, Fc-HRS(2-60) immobilised, 50 nM rat NRP2 as analyte
T2 construct: not shown: Fc and His tag
T2 sequence (looked up): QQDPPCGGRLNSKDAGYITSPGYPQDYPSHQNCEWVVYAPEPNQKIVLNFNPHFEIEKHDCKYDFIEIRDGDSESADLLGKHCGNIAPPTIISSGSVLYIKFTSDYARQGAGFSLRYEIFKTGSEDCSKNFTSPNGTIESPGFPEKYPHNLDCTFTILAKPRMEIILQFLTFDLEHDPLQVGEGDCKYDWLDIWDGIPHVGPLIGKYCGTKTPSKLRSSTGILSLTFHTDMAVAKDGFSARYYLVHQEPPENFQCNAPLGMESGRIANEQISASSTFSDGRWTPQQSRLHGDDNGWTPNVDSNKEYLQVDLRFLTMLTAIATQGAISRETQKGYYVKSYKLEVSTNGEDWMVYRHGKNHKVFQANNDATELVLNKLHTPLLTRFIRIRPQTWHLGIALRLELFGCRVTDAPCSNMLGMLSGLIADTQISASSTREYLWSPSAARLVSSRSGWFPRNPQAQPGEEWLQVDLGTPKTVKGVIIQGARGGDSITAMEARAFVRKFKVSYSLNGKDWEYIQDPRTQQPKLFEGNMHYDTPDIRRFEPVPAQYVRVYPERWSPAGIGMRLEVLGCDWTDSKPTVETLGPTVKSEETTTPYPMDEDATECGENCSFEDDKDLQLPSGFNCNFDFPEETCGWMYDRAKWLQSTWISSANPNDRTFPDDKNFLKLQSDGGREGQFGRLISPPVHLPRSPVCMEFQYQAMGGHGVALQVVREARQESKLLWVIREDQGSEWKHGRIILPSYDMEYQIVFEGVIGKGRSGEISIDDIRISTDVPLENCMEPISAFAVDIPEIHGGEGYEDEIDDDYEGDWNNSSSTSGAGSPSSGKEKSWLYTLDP

[3] = target: T3, Human NRP2 Variant 2 NRP2a(17), NM_003872, expressed on cells (human, UniProt O60462 23-931); assay: Retrogenix cell microarray, human protein on fixed HEK293 cells, sequential incubation, AF647 anti-human IgG Fc detection, 20 ug/ml test protein
T3 construct: also called Neuropilin 2A; NRP2 (NM_003872.2)
Excerpt: Primary hits (duplicate spots) were identified by analyzing fluorescence intensity in the AlexaFluor 647 and ZsGreen1 emission channels using the ImageQuant system, following standard fluorescent methodology. […] Additionally all vectors encoding all hits, plus control vectors, were spotted in duplicate on new slides, and used to reverse transfect human HEK293 cells as before.

[4] = target: T4, NRP2a-GFP fusion protein on HEK293T cells (human, UniProt O60462 23-931); assay: immunofluorescence microscopy (IN Cell Analyzer) on fixed HEK293T cells overexpressing NRP2v2-GFP, GFP Bright gate; Fc-HRS(2-60) titrated in 2 fold steps, complexed with anti-Fc-PE
T4 construct: Transiently transfected HEK293T cells, fixed before staining; also called NRP2v2-GFP; cell-expressed NRP2a; not shown: GFP and any linker of the Origene clone
Method: Cell culture and transfection.
HEK293T cells previously transfected with NRP2v2-GFP were passed the night before staining to 96 well Greiner Clear flat bottomed Microplates pre-coated with collagen coating solution. Supernatants were removed and cells were washed 1 time with binding buffer. Cells were then fixed with 50 μL of 3.7% methanol-free formaldehyde for 20 minutes at room temperature. Cells were washed 2× with binding buffer and then blocked with 100 μL of blocking buffer for 1 hour at room temperature. The cells were then washed one time with binding buffer and then incubated with 50 μL of staining complex overnight at 4 degrees Celsius. […] The Hoechst stain was replaced with 1×PBS and subsequently read on an IN Cell Analyzer 2200. 20× images were acquired and analyzed using In Cell Analyzer 1000 Workstation software. Segmentation of the cell mask was achieved using the GFP channel, and the average PE signal intensity was determined within this mask above a threshold intensity of 5000 (termed GFP Bright cells).

[5] = target: T5, Mouse PLXNA1-His (R&D Systems #4309-PA) (mouse, UniProt P70206 28-1242, limits assumed); assay: SPR, Fc-HRS(2-60) immobilised, 50 nM mouse Plexin A1 as analyte
T5 construct: also called mouse Plexin A1; not shown: His tag

- binding result [1]: no binding (tested: 50 nM)
- binding result [2]: binds
- binding result [3]: binds
- binding result [4]: binds
- binding result [5]: no binding (tested: 50 nM)
B1: Fc-HRS(2-60) (Fc fusion)
chain: [letters of human IgG1 Fc omitted]AERAALEELVKLQGERVRGLKQQKASAELIEEEVAKLLKLKAQLGPDESKQKFVLKTPK
notes: also called HRS^FC1; Imod
